# Experimental data: PubChem BioAssay AID588855 (National Center for Advancing Translational Sciences (NCATS), 2011)
# The campaign covered roughly 410,000 compounds. About 5,000 (1.2%) were called active. Inconclusive means that the source gave no clear call. Such entries were picked first, then a sample of the others. Calls follow the shape of the dose curve; as a rule, active = well fitted inhibition curve with a large enough effect; inconclusive = small, poorly fitted or top-dose-only effect; inactive = no such curve, though single readings can be large or run the other way. Potencies of inconclusive entries are doubtful fits and often do not repeat.
# Experiment: qHTS for Inhibitors of TGF-b; also: nearly all actives have a fitted effect of over 65% in size
# Details: HepG2 CAGA-GFP TGF-b/SMAD3 reporter, GFP fluorescence, 18 h, TGF-beta stimulated, 500 pg/mL final; series mostly up to 46.1 µM
# How it was run: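 Using HEPG2 CAGA-GFP reporter cells at 1000 cells/well, we pinned test compounds, stimulated with recombinant TGF-beta (500 pg/mL final) and measured total well GFP after 18 h.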
# Potency is read from the fitted curve at half-maximal effect; tags tell the direction and shape of the fitted curve.
row,SMILES,Potency
1,Clc1cccc(OCc2nc(-c3ccncc3)n[nH]2)c1,inactive
2,CCOc1ccc(C(=O)OCc2cc(=O)n3cc(C)sc3n2)cc1,"inconclusive: 1.78 µM [inhibitor, partial curve, poor fit]"
3,Cn1c(SCc2ccccc2Br)nc2ccccc2c1=O,"inconclusive: 35.5 µM [inhibitor, single point]"
4,CSCCC(NS(=O)(=O)c1cccc(C(F)(F)F)c1)C(=O)N(C)Cc1ccc2c(c1)OCCO2 (stereo unspecified),"inconclusive: 12.6 µM [inhibitor, single point]"
5,CCN(C(=O)c1cn(-c2ccc(OC)cc2)c(=O)c2ccccc12)c1cccc(Cl)c1,active: 15.8 µM
6,O=C(CSc1nc2ccc([N+](=O)[O-])cc2s1)c1ccc2ccccc2c1,"inconclusive: 2.82 µM [inhibitor, full curve, poor fit]"
7,COc1ccccc1CC(=O)Nc1ccc2nc(C)sc2c1,"inconclusive: 4.47 µM [inhibitor, single point]"
8,COCCCn1c(SCc2nnc(-c3ccc(OC)c(OC)c3)o2)nc2ccccc2c1=O,inactive
9,CCOC(=O)Cc1cc(=O)n2[nH]cc(-c3cccc(Br)c3)c2n1,"inconclusive: 35.5 µM [inhibitor, single point]"
10,COCc1cc(C)nc2sc3c(c12)NC(c1ccc(O)cc1)N(c1ccc(C)cc1)C3=O (stereo unspecified),"inconclusive: 35.5 µM [inhibitor, single point]"
11,O=C(OCC(O)C(O)C(O)COC(=O)c1ccccc1)c1ccccc1 (stereo unspecified),inactive
12,CC1=C(C(=O)OC(C)C)C(C)C(C(=O)OC(C)C)=C(C)N1,inactive
13,COc1ccc(CNC(=O)c2cnn(-c3ccc(C)cc3)c2-n2cccc2)cc1OC,"inconclusive: 14.1 µM [inhibitor, partial curve, poor fit]"
14,Cc1ncc(CO)c(CNc2ccc(Oc3ccccc3)cc2)c1O,inactive
15,CSc1cccc(NC(C)C(=O)NCc2ccccc2)c1 (stereo unspecified),inactive
16,C=CC[C@@H](CC(=O)NCCO)C(=O)N[C@H](COC(=O)[C@@H](CC=C)Cc1ccc(F)cc1)Cc1c[nH]c2ccccc12,"inconclusive: 10 µM [inhibitor, partial curve]"
17,Cc1cc2cc(CCNC(=O)c3cccs3)c(=O)[nH]c2cc1C,"inconclusive: 22.4 µM [inhibitor, single point]"
18,CCOc1cc(C)cc2oc(=O)cc(-c3ccccc3)c12,"inconclusive: 35.5 µM [inhibitor, single point]"
19,Cc1ccc(CNC(=O)COc2ccccc2-c2ccccc2)cc1,"inconclusive: 35.5 µM [inhibitor, single point]"
20,O=C(Nc1cccc(Cl)c1)Nc1csc([N+](=O)[O-])c1,"inconclusive: 2.51 µM [inhibitor, full curve]"
21,Cc1ccc(S(=O)(=O)Oc2ccc(/C=N/NC(=O)c3nn(C)cc3[N+](=O)[O-])cc2)cc1,"inconclusive: 35.5 µM [inhibitor, single point]"

row,SMILES,Potency
1,COc1ccc(NC(=S)Nc2ccccn2)c(OC)c1,"inconclusive: 17.8 µM [inhibitor, single point]"
2,O=C(Nc1ccc(CN2CCOCC2)cc1)c1ccc(-c2ccc(Br)cc2)o1,"inconclusive: 14.1 µM [inhibitor, single point]"
3,Cc1cccc(C)c1Nc1n[nH]c(=S)s1,inactive
4,CN1CCN(c2nc3ccccc3nc2C(C#N)C(=O)OC2CCCCC2)CC1 (stereo unspecified),"inconclusive: 3.98 µM [inhibitor, single point]"
5,COc1cccc(CN2C(=O)CN(C3CCCCC3)C(=O)C2c2ccc(OC)c(OC)c2)c1 (stereo unspecified),"inconclusive: 2.82 µM [inhibitor, full curve, poor fit]"
6,COc1ccc2c(c1)c1c(c(=O)n(-c3ccccc3C)c(=O)n1CC(=O)N1CCCC1)n2C,"inconclusive: 6.31 µM [inhibitor, single point]"
7,CN(C1CCCCC1)S(=O)(=O)c1cc2c(cc1Cl)NC(=O)CO2,"inconclusive: 31.6 µM [inhibitor, single point]"
8,O=S(=O)(Cc1ccccc1)N=Nc1c(O)[nH]c2ccc(Br)cc12,"inconclusive: 8.91 µM [inhibitor, partial curve]"
9,O=C(CCOc1ccc(F)cc1)Nc1nccs1,inactive
10,COc1ccc(C(=O)/C=C/C(=O)N(CC(=O)NC2CCCCC2)Cc2ccccc2)c(O)c1,"inconclusive: 3.55 µM [inhibitor, single point]"
11,N#Cc1ccccc1Sc1ccccc1C(=O)OCC(=O)NC12CC3CC(CC(C3)C1)C2,"inconclusive: 1.26 µM [inhibitor, full curve, poor fit]"
12,O=[N+]([O-])c1cccc(-c2n[nH]c(=S)n2-c2ccc(Br)cc2)c1,inactive
13,CC(C)C(N)c1csc(Nc2ccc(C(F)(F)F)cn2)n1 (stereo unspecified),"inconclusive: 25.1 µM [inhibitor, single point]"
14,Cc1[nH]n(-c2ccccc2)c(=S)c1C=Nc1ccc([N+](=O)[O-])cc1,"inconclusive: 12.6 µM [inhibitor, single point]"
15,CCOC(=O)C(NC(=O)c1cccc(Cl)c1)(Nc1sc2c(c1C(N)=O)CCC2)C(F)(F)F (stereo unspecified),"inconclusive: 20 µM [inhibitor, single point]"
16,C[C@H](O)[C@@H]1C(=O)N2CCc3ccc(-c4cccc(F)c4)cc3[C@@H]2C[C@@H]1N(C)S(=O)(=O)c1ccccc1,"inconclusive: 35.5 µM [inhibitor, single point]"
17,COc1ccccc1NC(=S)N(Cc1ccco1)Cc1cc2ccc(C)c(C)c2[nH]c1=O,"inconclusive: 5.01 µM [inhibitor, partial curve, poor fit]"
18,O=C(CSc1ncc(CO)n1Cc1ccc(Cl)cc1)NCc1ccc(F)cc1,"inconclusive: 12.6 µM [inhibitor, single point]"
19,Cc1cc(C(=O)N/N=C/c2cc([N+](=O)[O-])ccc2O)c2ccccc2n1,"inconclusive: 35.5 µM [inhibitor, single point]"
20,CCN1CCN(c2cc(C)c3cc(NC(=S)N4CCN(c5ccccc5F)CC4)ccc3n2)CC1,"inconclusive: 35.5 µM [inhibitor, single point]"
